# The other results are listed elsewhere or left out.
# Molecular target: T1, MBP-FoxP1dN (Mus musculus, UniProt P58462 326-579)
# T1 sequence: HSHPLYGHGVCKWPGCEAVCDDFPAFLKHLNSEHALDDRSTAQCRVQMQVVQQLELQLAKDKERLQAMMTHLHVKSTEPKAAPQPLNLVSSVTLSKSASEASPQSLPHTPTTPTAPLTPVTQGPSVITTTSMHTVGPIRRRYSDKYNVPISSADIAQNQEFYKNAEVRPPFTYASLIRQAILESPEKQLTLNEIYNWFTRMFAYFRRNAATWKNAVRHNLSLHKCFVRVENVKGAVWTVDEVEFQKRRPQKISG
# Assay: PD-seq (MBP pull-down with sequencing); 20 mM Tris-HCl pH 7.5, 100 mM NaCl, 1.5 mM MgCl2, 0.4 uM protein, 0.1 uM dsDNA library, 30 min, room temperature, amylose pull-down; high values mean tight binding
# Settings: protein: recombinant; tags: His6-MBP; chain copies: 2; dsDNA, one strand shown
# Procedure, shortened: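 A fragment of mouse FoxP3 or FoxP1 without its N-terminus, carrying a His6-MBP tag and produced in E. coli, was combined at 0.4 µM with a 0.1 µM degenerate double-stranded DNA library filled in with Klenow. The mixture sat for 30 min at room temperature in Tris pH 7.5 buffer containing NaCl and MgCl2. Protein–DNA complexes were captured on amylose resin, washed three times, and the DNA was freed with proteinase K, barcoded by PCR and sequenced on Illumina. Binding is expressed as reads-per-million enrichment of pull-down over input, with replicates pooled.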
row,Sequence,binding signal
1,GATGATTGTTCTCCCAGCTGATGAATTCATCCCTTCGAGTAAACAAATTTTCCTAATCTTTCTGTTCAAGCGCCATCTAC,0.859 RPM ratio (pull-down/input)
2,GATGATTGTTCTCCCAGCTGATGAATTACCACTGTCGAGTAAACAAATTTTCCTAATCTTTCTGTTCAAGCGCCATCTAC,1.01 RPM ratio (pull-down/input)
3,GATGATTGTTCTCCCAGCTGATGAATTGAAGCGATCGAGTAAACAAATTTTCCTAATCTTTCTGTTCAAGCGCCATCTAC,0.853 RPM ratio (pull-down/input)
4,GATGATTGTTCTCCCAGCTGATGAATTAACCGTATCGAGTAAACAAATTTTCCTAATCTTTCTGTTCAAGCGCCATCTAC,0.975 RPM ratio (pull-down/input)
5,GATGATTGTTCTCCCAGCTGATGAATTAATCAGGTCGAGTAAACAAATTTTCCTAATCTTTCTGTTCAAGCGCCATCTAC,0.844 RPM ratio (pull-down/input)
6,GATGATTGTTCTCCCAGCTGATGAATTAGAATTATCGAGTAAACAAATTTTCCTAATCTTTCTGTTCAAGCGCCATCTAC,1.07 RPM ratio (pull-down/input)
7,GATGATTGTTCTCCCAGCTGATGAATTAATAATTTCGAGTAAACAAATTTTCCTAATCTTTCTGTTCAAGCGCCATCTAC,1.03 RPM ratio (pull-down/input)
8,GATGATTGTTCTCCCAGCTGATGAATTCAACCCTTCGAGTAAACAAATTTTCCTAATCTTTCTGTTCAAGCGCCATCTAC,0.906 RPM ratio (pull-down/input)
9,GATGATTGTTCTCCCAGCTGATGAATTGTTCCTATCGAGTAAACAAATTTTCCTAATCTTTCTGTTCAAGCGCCATCTAC,1.17 RPM ratio (pull-down/input)
10,GATGATTGTTCTCCCAGCTGATGAATTAACGTATTCGAGTAAACAAATTTTCCTAATCTTTCTGTTCAAGCGCCATCTAC,1.12 RPM ratio (pull-down/input)
11,GATGATTGTTCTCCCAGCTGATGAATTTCTCTACTCGAGTAAACAAATTTTCCTAATCTTTCTGTTCAAGCGCCATCTAC,0.809 RPM ratio (pull-down/input)
12,GATGATTGTTCTCCCAGCTGATGAATTTGAACATTCGAGTAAACAAATTTTCCTAATCTTTCTGTTCAAGCGCCATCTAC,0.931 RPM ratio (pull-down/input)
13,GATGATTGTTCTCCCAGCTGATGAATTGTTCCCATCGAGTAAACAAATTTTCCTAATCTTTCTGTTCAAGCGCCATCTAC,1.05 RPM ratio (pull-down/input)
14,GATGATTGTTCTCCCAGCTGATGAATTCCACGCATCGAGTAAACAAATTTTCCTAATCTTTCTGTTCAAGCGCCATCTAC,1.12 RPM ratio (pull-down/input)
15,GATGATTGTTCTCCCAGCTGATGAATTTTTCGACTCGAGTAAACAAATTTTCCTAATCTTTCTGTTCAAGCGCCATCTAC,0.872 RPM ratio (pull-down/input)
16,GATGATTGTTCTCCCAGCTGATGAATTGCGGAGATCGAGTAAACAAATTTTCCTAATCTTTCTGTTCAAGCGCCATCTAC,1.02 RPM ratio (pull-down/input)
17,GATGATTGTTCTCCCAGCTGATGAATTACTTGTGTCGAGTAAACAAATTTTCCTAATCTTTCTGTTCAAGCGCCATCTAC,1.24 RPM ratio (pull-down/input)
18,GATGATTGTTCTCCCAGCTGATGAATTAGCAACGTCGAGTAAACAAATTTTCCTAATCTTTCTGTTCAAGCGCCATCTAC,1.08 RPM ratio (pull-down/input)
19,GATGATTGTTCTCCCAGCTGATGAATTAGCTTTGTCGAGTAAACAAATTTTCCTAATCTTTCTGTTCAAGCGCCATCTAC,0.873 RPM ratio (pull-down/input)
20,GATGATTGTTCTCCCAGCTGATGAATTAGATGAGTCGAGTAAACAAATTTTCCTAATCTTTCTGTTCAAGCGCCATCTAC,0.917 RPM ratio (pull-down/input)
21,GATGATTGTTCTCCCAGCTGATGAATTCGTGTAGTCGAGTAAACAAATTTTCCTAATCTTTCTGTTCAAGCGCCATCTAC,0.961 RPM ratio (pull-down/input)

row,Sequence,binding signal
1,GATGATTGTTCTCCCAGCTGATGAATTGGCTAACTCGAGTAAACAAATTTTCCTAATCTTTCTGTTCAAGCGCCATCTAC,0.84 RPM ratio (pull-down/input)
2,GATGATTGTTCTCCCAGCTGATGAATTGAACCGGTCGAGTAAACAAATTTTCCTAATCTTTCTGTTCAAGCGCCATCTAC,0.755 RPM ratio (pull-down/input)
3,GATGATTGTTCTCCCAGCTGATGAATTGCGAGGTTCGAGTAAACAAATTTTCCTAATCTTTCTGTTCAAGCGCCATCTAC,0.945 RPM ratio (pull-down/input)
4,GATGATTGTTCTCCCAGCTGATGAATTGCTGAGCTCGAGTAAACAAATTTTCCTAATCTTTCTGTTCAAGCGCCATCTAC,0.845 RPM ratio (pull-down/input)
5,GATGATTGTTCTCCCAGCTGATGAATTTTAGGATTCGAGTAAACAAATTTTCCTAATCTTTCTGTTCAAGCGCCATCTAC,0.868 RPM ratio (pull-down/input)
6,GATGATTGTTCTCCCAGCTGATGAATTTTTTATATCGAGTAAACAAATTTTCCTAATCTTTCTGTTCAAGCGCCATCTAC,1.08 RPM ratio (pull-down/input)
7,GATGATTGTTCTCCCAGCTGATGAATTATATATTTCGAGTAAACAAATTTTCCTAATCTTTCTGTTCAAGCGCCATCTAC,1.06 RPM ratio (pull-down/input)
8,GATGATTGTTCTCCCAGCTGATGAATTACTACACTCGAGTAAACAAATTTTCCTAATCTTTCTGTTCAAGCGCCATCTAC,1.16 RPM ratio (pull-down/input)
9,GATGATTGTTCTCCCAGCTGATGAATTACTAACTTCGAGTAAACAAATTTTCCTAATCTTTCTGTTCAAGCGCCATCTAC,1.21 RPM ratio (pull-down/input)
10,GATGATTGTTCTCCCAGCTGATGAATTACTACCGTCGAGTAAACAAATTTTCCTAATCTTTCTGTTCAAGCGCCATCTAC,0.989 RPM ratio (pull-down/input)
11,GATGATTGTTCTCCCAGCTGATGAATTTAACACCTCGAGTAAACAAATTTTCCTAATCTTTCTGTTCAAGCGCCATCTAC,0.824 RPM ratio (pull-down/input)
12,GATGATTGTTCTCCCAGCTGATGAATTATGAAGGTCGAGTAAACAAATTTTCCTAATCTTTCTGTTCAAGCGCCATCTAC,0.831 RPM ratio (pull-down/input)
13,GATGATTGTTCTCCCAGCTGATGAATTTCGTCGCTCGAGTAAACAAATTTTCCTAATCTTTCTGTTCAAGCGCCATCTAC,0.845 RPM ratio (pull-down/input)
14,GATGATTGTTCTCCCAGCTGATGAATTGCTACGCTCGAGTAAACAAATTTTCCTAATCTTTCTGTTCAAGCGCCATCTAC,0.952 RPM ratio (pull-down/input)
15,GATGATTGTTCTCCCAGCTGATGAATTATAACCGTCGAGTAAACAAATTTTCCTAATCTTTCTGTTCAAGCGCCATCTAC,1.01 RPM ratio (pull-down/input)
16,GATGATTGTTCTCCCAGCTGATGAATTTCGGTTATCGAGTAAACAAATTTTCCTAATCTTTCTGTTCAAGCGCCATCTAC,0.974 RPM ratio (pull-down/input)
17,GATGATTGTTCTCCCAGCTGATGAATTAACAACCTCGAGTAAACAAATTTTCCTAATCTTTCTGTTCAAGCGCCATCTAC,1.19 RPM ratio (pull-down/input)
18,GATGATTGTTCTCCCAGCTGATGAATTATCAGCTTCGAGTAAACAAATTTTCCTAATCTTTCTGTTCAAGCGCCATCTAC,1.02 RPM ratio (pull-down/input)
19,GATGATTGTTCTCCCAGCTGATGAATTCCTCATATCGAGTAAACAAATTTTCCTAATCTTTCTGTTCAAGCGCCATCTAC,0.922 RPM ratio (pull-down/input)
20,GATGATTGTTCTCCCAGCTGATGAATTCCTATATTCGAGTAAACAAATTTTCCTAATCTTTCTGTTCAAGCGCCATCTAC,1.03 RPM ratio (pull-down/input)
21,GATGATTGTTCTCCCAGCTGATGAATTTCCGTATTCGAGTAAACAAATTTTCCTAATCTTTCTGTTCAAGCGCCATCTAC,0.973 RPM ratio (pull-down/input)

row,Sequence,binding signal
1,GATGATTGTTCTCCCAGCTGATGAATTTTAGGTTTCGAGTAAACAAATTTTCCTAATCTTTCTGTTCAAGCGCCATCTAC,0.926 RPM ratio (pull-down/input)
2,GATGATTGTTCTCCCAGCTGATGAATTGTCACTATCGAGTAAACAAATTTTCCTAATCTTTCTGTTCAAGCGCCATCTAC,1.14 RPM ratio (pull-down/input)
3,GATGATTGTTCTCCCAGCTGATGAATTAGTTCAGTCGAGTAAACAAATTTTCCTAATCTTTCTGTTCAAGCGCCATCTAC,0.955 RPM ratio (pull-down/input)
4,GATGATTGTTCTCCCAGCTGATGAATTACGTTCATCGAGTAAACAAATTTTCCTAATCTTTCTGTTCAAGCGCCATCTAC,1.07 RPM ratio (pull-down/input)
5,GATGATTGTTCTCCCAGCTGATGAATTCAAAGATTCGAGTAAACAAATTTTCCTAATCTTTCTGTTCAAGCGCCATCTAC,0.915 RPM ratio (pull-down/input)
6,GATGATTGTTCTCCCAGCTGATGAATTACAGCGCTCGAGTAAACAAATTTTCCTAATCTTTCTGTTCAAGCGCCATCTAC,0.996 RPM ratio (pull-down/input)
7,GATGATTGTTCTCCCAGCTGATGAATTTTACCGGTCGAGTAAACAAATTTTCCTAATCTTTCTGTTCAAGCGCCATCTAC,0.803 RPM ratio (pull-down/input)
8,GATGATTGTTCTCCCAGCTGATGAATTTGGGCCGTCGAGTAAACAAATTTTCCTAATCTTTCTGTTCAAGCGCCATCTAC,0.828 RPM ratio (pull-down/input)
9,GATGATTGTTCTCCCAGCTGATGAATTCTTATACTCGAGTAAACAAATTTTCCTAATCTTTCTGTTCAAGCGCCATCTAC,0.878 RPM ratio (pull-down/input)
10,GATGATTGTTCTCCCAGCTGATGAATTCATTTAATCGAGTAAACAAATTTTCCTAATCTTTCTGTTCAAGCGCCATCTAC,1.08 RPM ratio (pull-down/input)
11,GATGATTGTTCTCCCAGCTGATGAATTACAGAGATCGAGTAAACAAATTTTCCTAATCTTTCTGTTCAAGCGCCATCTAC,1.03 RPM ratio (pull-down/input)
12,GATGATTGTTCTCCCAGCTGATGAATTAGACACATCGAGTAAACAAATTTTCCTAATCTTTCTGTTCAAGCGCCATCTAC,1.15 RPM ratio (pull-down/input)
13,GATGATTGTTCTCCCAGCTGATGAATTTCTACATTCGAGTAAACAAATTTTCCTAATCTTTCTGTTCAAGCGCCATCTAC,0.939 RPM ratio (pull-down/input)
14,GATGATTGTTCTCCCAGCTGATGAATTGGAAGTGTCGAGTAAACAAATTTTCCTAATCTTTCTGTTCAAGCGCCATCTAC,0.88 RPM ratio (pull-down/input)
15,GATGATTGTTCTCCCAGCTGATGAATTTGGACGCTCGAGTAAACAAATTTTCCTAATCTTTCTGTTCAAGCGCCATCTAC,0.926 RPM ratio (pull-down/input)
16,GATGATTGTTCTCCCAGCTGATGAATTTTAAACATCGAGTAAACAAATTTTCCTAATCTTTCTGTTCAAGCGCCATCTAC,1.25 RPM ratio (pull-down/input)
17,GATGATTGTTCTCCCAGCTGATGAATTGCGCCCATCGAGTAAACAAATTTTCCTAATCTTTCTGTTCAAGCGCCATCTAC,1.04 RPM ratio (pull-down/input)
18,GATGATTGTTCTCCCAGCTGATGAATTACCAACTTCGAGTAAACAAATTTTCCTAATCTTTCTGTTCAAGCGCCATCTAC,1.06 RPM ratio (pull-down/input)
19,GATGATTGTTCTCCCAGCTGATGAATTTACTCCGTCGAGTAAACAAATTTTCCTAATCTTTCTGTTCAAGCGCCATCTAC,1.21 RPM ratio (pull-down/input)
20,GATGATTGTTCTCCCAGCTGATGAATTTTAAATTTCGAGTAAACAAATTTTCCTAATCTTTCTGTTCAAGCGCCATCTAC,0.924 RPM ratio (pull-down/input)
21,GATGATTGTTCTCCCAGCTGATGAATTGCCGTGGTCGAGTAAACAAATTTTCCTAATCTTTCTGTTCAAGCGCCATCTAC,0.892 RPM ratio (pull-down/input)

# — article PMC12820563, “FoxP3 forms a head-to-head dimer in vivo and stabilizes its multimerization on adjacent microsatellites”
